Test results as given in the supplement of paper PMC4967469.
By IC50 is meant the dose at which the fit gives 50% viability; fits outside the tested doses are given as limits. The AUC spans the tested range (256-fold, ending at the top dose) of the same fit; it is 1 without any effect and falls as sensitivity rises. For some of these results: Where the top dose is marked as inferred, it comes from the curve model; the source does not state it.

Assays:
Assay in all cases: Viability of human cancer cell lines after 72 h of drug (GDSC screen)
Erlotinib = compound: C#Cc1cccc(Nc2ncnc3cc(OCCOC)c(OCCOC)cc23)c1 [Erlotinib]; settings: top dose 2 µM
Procedure: (§1)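 Human cancer cell lines in 384-well plates, medium with 10% serum, drug for 72 h over a 256-fold dose range (nine 2-fold or five 4-fold steps up to the top dose). Adherent lines were fixed and stained with the nucleic acid dye Syto60, suspension lines read with resazurin; signal relative to control wells, capped at 0 and 100%. One two-parameter sigmoid per drug and line, fitted in a mixed model over all curves with the slope shared within a line.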

QL-XI-92 = compound: C=CC(=O)Nc1cc(NC(=O)c2ccc(C)c(NC(=O)c3ccno3)c2)cc(C(F)(F)F)c1 [QL-XI-92]; settings: top dose 10.24 µM; top dose inferred
Procedure: as §1

Vinorelbine = compound: CCC1=C[C@@H]2CN(C1)Cc1c([nH]c3ccccc13)[C@@](C(=O)OC)(c1cc3c(cc1OC)N(C)[C@H]1[C@@](O)(C(=O)OC)[C@H](OC(C)=O)[C@]4(CC)C=CCN5CC[C@]31[C@@H]54)C2 [Vinorelbine]; settings: top dose 0.064 µM; top dose inferred
Procedure: as §1

AG-014699 = compound: CNCc1ccc(-c2[nH]c3cc(F)cc4c3c2CCNC4=O)cc1 [AG-014699]; settings: top dose 5 µM; top dose inferred
Procedure: as §1

XL-184 = compound: COc1cc2nccc(Oc3ccc(NC(=O)C4(C(=O)Nc5ccc(F)cc5)CC4)cc3)c2cc1OC [XL-184]; settings: top dose 5.12 µM; top dose inferred
Procedure: as §1

WHI-P97 = compound: COc1cc2ncnc(Nc3cc(Br)c(O)c(Br)c3)c2cc1OC [WHI-P97]; settings: top dose 10.24 µM; top dose inferred
Procedure: as §1

Gefitinib = compound: COc1cc2ncnc(Nc3ccc(F)c(Cl)c3)c2cc1OCCCN1CCOCC1 [Gefitinib]; settings: top dose 0.5 µM
Procedure: as §1

Phenformin = compound: N=C(N)NC(=N)NCCc1ccccc1 [Phenformin]; settings: top dose 4000 µM; top dose inferred
Procedure: as §1

S-Trityl-L-cysteine = compound: N[C@@H](CSC(c1ccccc1)(c1ccccc1)c1ccccc1)C(=O)O [S-Trityl-L-cysteine]; settings: top dose 5.12 µM; top dose inferred
Procedure: as §1

EHT 1864 = compound: O=c1cc(CN2CCOCC2)occ1OCCCCCSc1ccnc2cc(C(F)(F)F)ccc12 [EHT 1864]; settings: top dose 10 µM; top dose inferred
Procedure: as §1

NU-7441 = compound: O=c1cc(N2CCOCC2)oc2c(-c3cccc4c3sc3ccccc34)cccc12 [NU-7441]; settings: top dose 2 µM; top dose inferred
Procedure: as §1

Cell Line: DJM-1 (skin, adherent)
- AUC (Erlotinib): 0.906
- IC50 (Erlotinib): > 2 µM
- AUC (QL-XI-92): 0.988
- IC50 (QL-XI-92): > 10.2 µM
- AUC (Vinorelbine): 0.72
- IC50 (Vinorelbine): 0.0167 µM
- AUC (AG-014699): 0.987
- IC50 (AG-014699): > 5 µM
- AUC (XL-184): 0.965
- IC50 (XL-184): > 5.12 µM
- AUC (WHI-P97): 0.933
- IC50 (WHI-P97): > 10.2 µM
- AUC (Gefitinib): 0.974
- IC50 (Gefitinib): > 0.5 µM
- AUC (Phenformin): 0.989
- IC50 (Phenformin): > 4000 µM
- AUC (S-Trityl-L-cysteine): 0.786
- IC50 (S-Trityl-L-cysteine): 2.19 µM
- AUC (EHT 1864): 0.98
- IC50 (EHT 1864): > 10 µM
- AUC (NU-7441): 0.981
- IC50 (NU-7441): > 2 µM

Cell Line: DMS-79 (small cell lung carcinoma, suspension)
- AUC (Erlotinib): 0.947
- IC50 (Erlotinib): > 2 µM
- AUC (QL-XI-92): 0.983
- IC50 (QL-XI-92): > 10.2 µM
- AUC (Vinorelbine): 0.953
- IC50 (Vinorelbine): > 0.064 µM
- AUC (AG-014699): 0.941
- IC50 (AG-014699): > 5 µM
- AUC (XL-184): 0.981
- IC50 (XL-184): > 5.12 µM
- AUC (WHI-P97): 0.987
- IC50 (WHI-P97): > 10.2 µM
- AUC (Gefitinib): 0.985
- IC50 (Gefitinib): > 0.5 µM
- AUC (Phenformin): 0.823
- IC50 (Phenformin): 2880 µM
- AUC (S-Trityl-L-cysteine): 0.879
- IC50 (S-Trityl-L-cysteine): > 5.12 µM
- AUC (EHT 1864): 0.924
- IC50 (EHT 1864): > 10 µM
- AUC (NU-7441): 0.983
- IC50 (NU-7441): > 2 µM

Cell Line: EB2 (Burkitt lymphoma, suspension)
- AUC (Erlotinib): 0.987
- IC50 (Erlotinib): > 2 µM
- AUC (QL-XI-92): 0.836
- IC50 (QL-XI-92): 5.91 µM
- AUC (Vinorelbine): 0.591
- IC50 (Vinorelbine): 0.00694 µM
- AUC (AG-014699): 0.99
- IC50 (AG-014699): > 5 µM
- AUC (XL-184): 0.83
- IC50 (XL-184): 2.81 µM
- AUC (WHI-P97): 0.883
- IC50 (WHI-P97): 9.13 µM
- AUC (Gefitinib): 0.967
- IC50 (Gefitinib): > 0.5 µM
- AUC (Phenformin): 0.612
- IC50 (Phenformin): 493 µM
- AUC (S-Trityl-L-cysteine): 0.973
- IC50 (S-Trityl-L-cysteine): > 5.12 µM
- AUC (EHT 1864): 0.976
- IC50 (EHT 1864): > 10 µM
- AUC (NU-7441): 0.99
- IC50 (NU-7441): > 2 µM

Cell Line: EB-3 (Burkitt lymphoma, suspension)
- AUC (Erlotinib): 0.98
- IC50 (Erlotinib): > 2 µM
- AUC (QL-XI-92): 0.821
- IC50 (QL-XI-92): 7.21 µM
- AUC (Vinorelbine): 0.895
- IC50 (Vinorelbine): > 0.064 µM
- AUC (AG-014699): 0.977
- IC50 (AG-014699): > 5 µM
- AUC (XL-184): 0.897
- IC50 (XL-184): > 5.12 µM
- AUC (WHI-P97): 0.894
- IC50 (WHI-P97): > 10.2 µM
- AUC (Gefitinib): 0.974
- IC50 (Gefitinib): > 0.5 µM
- AUC (Phenformin): 0.549
- IC50 (Phenformin): 348 µM
- AUC (S-Trityl-L-cysteine): 0.889
- IC50 (S-Trityl-L-cysteine): > 5.12 µM
- AUC (EHT 1864): 0.942
- IC50 (EHT 1864): > 10 µM
- AUC (NU-7441): 0.984
- IC50 (NU-7441): > 2 µM

Cell Line: EJM (lymphoid neoplasm, semi-adherent)
- AUC (Erlotinib): 0.99
- IC50 (Erlotinib): > 2 µM
- AUC (QL-XI-92): 0.976
- IC50 (QL-XI-92): > 10.2 µM
- AUC (Vinorelbine): 0.747
- IC50 (Vinorelbine): 0.0177 µM
- AUC (AG-014699): 0.992
- IC50 (AG-014699): > 5 µM
- AUC (XL-184): 0.967
- IC50 (XL-184): > 5.12 µM
- AUC (WHI-P97): 0.953
- IC50 (WHI-P97): > 10.2 µM
- AUC (Gefitinib): 0.988
- IC50 (Gefitinib): > 0.5 µM
- AUC (Phenformin): 0.569
- IC50 (Phenformin): 374 µM
- AUC (S-Trityl-L-cysteine): 0.921
- IC50 (S-Trityl-L-cysteine): > 5.12 µM
- AUC (EHT 1864): 0.969
- IC50 (EHT 1864): > 10 µM
- AUC (NU-7441): 0.981
- IC50 (NU-7441): > 2 µM

Cell Line: EM-2 (chronic myeloid leukaemia, suspension)
- AUC (Erlotinib): 0.976
- IC50 (Erlotinib): > 2 µM
- AUC (QL-XI-92): 0.642
- IC50 (QL-XI-92): 1.67 µM
- AUC (Vinorelbine): 0.781
- IC50 (Vinorelbine): 0.0302 µM
- AUC (AG-014699): 0.982
- IC50 (AG-014699): > 5 µM
- AUC (XL-184): 0.63
- IC50 (XL-184): 0.768 µM
- AUC (WHI-P97): 0.964
- IC50 (WHI-P97): > 10.2 µM
- AUC (Gefitinib): 0.981
- IC50 (Gefitinib): > 0.5 µM
- AUC (Phenformin): 0.763
- IC50 (Phenformin): 1620 µM
- AUC (S-Trityl-L-cysteine): 0.9
- IC50 (S-Trityl-L-cysteine): > 5.12 µM
- AUC (EHT 1864): 0.959
- IC50 (EHT 1864): > 10 µM
- AUC (NU-7441): 0.98
- IC50 (NU-7441): > 2 µM

Cell Line: ES8 (Ewing sarcoma, adherent)
- AUC (Erlotinib): 0.98
- IC50 (Erlotinib): > 2 µM
- AUC (QL-XI-92): 0.916
- IC50 (QL-XI-92): > 10.2 µM
- AUC (Vinorelbine): 0.369
- IC50 (Vinorelbine): 0.00179 µM
- AUC (AG-014699): 0.839
- IC50 (AG-014699): 3.07 µM
- AUC (XL-184): 0.872
- IC50 (XL-184): 4.26 µM
- AUC (WHI-P97): 0.938
- IC50 (WHI-P97): > 10.2 µM
- AUC (Gefitinib): 0.985
- IC50 (Gefitinib): > 0.5 µM
- AUC (Phenformin): 0.787
- IC50 (Phenformin): 1610 µM
- AUC (S-Trityl-L-cysteine): 0.59
- IC50 (S-Trityl-L-cysteine): 0.555 µM
- AUC (EHT 1864): 0.898
- IC50 (EHT 1864): > 10 µM
- AUC (NU-7441): 0.976
- IC50 (NU-7441): > 2 µM

Cell Line: ES-2 (ovary, adherent)
- AUC (Erlotinib): 0.987
- IC50 (Erlotinib): > 2 µM
- AUC (QL-XI-92): 0.991
- IC50 (QL-XI-92): > 10.2 µM
- AUC (Vinorelbine): 0.975
- IC50 (Vinorelbine): > 0.064 µM
- AUC (AG-014699): 0.99
- IC50 (AG-014699): > 5 µM
- AUC (XL-184): 0.879
- IC50 (XL-184): 4.17 µM
- AUC (WHI-P97): 0.991
- IC50 (WHI-P97): > 10.2 µM
- AUC (Gefitinib): 0.991
- IC50 (Gefitinib): > 0.5 µM
- AUC (Phenformin): 0.551
- IC50 (Phenformin): 339 µM
- AUC (S-Trityl-L-cysteine): 0.836
- IC50 (S-Trityl-L-cysteine): 2.83 µM
- AUC (EHT 1864): 0.985
- IC50 (EHT 1864): > 10 µM
- AUC (NU-7441): 0.981
- IC50 (NU-7441): > 2 µM

Cell Line: ETK-1 (biliary tract, adherent)
- AUC (Erlotinib): 0.897
- IC50 (Erlotinib): > 2 µM
- AUC (QL-XI-92): 0.938
- IC50 (QL-XI-92): > 10.2 µM
- AUC (Vinorelbine): 0.556
- IC50 (Vinorelbine): 0.00582 µM
- AUC (AG-014699): 0.918
- IC50 (AG-014699): > 5 µM
- AUC (XL-184): 0.914
- IC50 (XL-184): > 5.12 µM
- AUC (WHI-P97): 0.953
- IC50 (WHI-P97): > 10.2 µM
- AUC (Gefitinib): 0.853
- IC50 (Gefitinib): 0.474 µM
- AUC (Phenformin): 0.819
- IC50 (Phenformin): 2670 µM
- AUC (S-Trityl-L-cysteine): 0.704
- IC50 (S-Trityl-L-cysteine): 1.31 µM
- AUC (EHT 1864): 0.973
- IC50 (EHT 1864): > 10 µM
- AUC (NU-7441): 0.958
- IC50 (NU-7441): > 2 µM

Cell Line: EW-11 (Ewing sarcoma, adherent)
- AUC (Erlotinib): 0.947
- IC50 (Erlotinib): > 2 µM
- AUC (QL-XI-92): 0.902
- IC50 (QL-XI-92): > 10.2 µM
- AUC (Vinorelbine): 0.788
- IC50 (Vinorelbine): 0.0372 µM
- AUC (AG-014699): 0.777
- IC50 (AG-014699): 2.63 µM
- AUC (XL-184): 0.886
- IC50 (XL-184): > 5.12 µM
- AUC (WHI-P97): 0.933
- IC50 (WHI-P97): > 10.2 µM
- AUC (Gefitinib): 0.933
- IC50 (Gefitinib): > 0.5 µM
- AUC (Phenformin): 0.58
- IC50 (Phenformin): 441 µM
- AUC (S-Trityl-L-cysteine): 0.959
- IC50 (S-Trityl-L-cysteine): > 5.12 µM
- AUC (EHT 1864): 0.974
- IC50 (EHT 1864): > 10 µM
- AUC (NU-7441): 0.965
- IC50 (NU-7441): > 2 µM
